From PubChem BioAssay AID1346428 (National Center for Advancing Translational Sciences (NCATS), 2018)
Several values for one entry are separate records, joined by “and”; a condition that tells them apart may be missing. Equal entries are not always repeated. Out of some 48,000 compounds screened, about 1,200 (2.5%) were called active. Roughly 2% stayed inconclusive and do not appear here.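 The calls were made as follows: active = activation of at least 60% and not above a set upper limit (about 1 call in 100 departs from these limits); inconclusive = activation of 40% to 60%, or above that upper limit; inactive = activation under 40%.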 This is one part of the list.
Also: 0% is about no effect.

Each compound was assayed against Probable G-protein coupled receptor 32 (Homo sapiens) (UniProt O75388) (assay: qHTS for Agonists of Human Resolvin D1 Receptor DRV1). Conditions: CHO-K1 GPR32 beta-arrestin PathHunter luminescence, 90 min; at 76.9 µM; active compounds read high; zero percent set by DMSO-only wells.
Sequence of UniProt O75388 (O75388 whole entry, looked up): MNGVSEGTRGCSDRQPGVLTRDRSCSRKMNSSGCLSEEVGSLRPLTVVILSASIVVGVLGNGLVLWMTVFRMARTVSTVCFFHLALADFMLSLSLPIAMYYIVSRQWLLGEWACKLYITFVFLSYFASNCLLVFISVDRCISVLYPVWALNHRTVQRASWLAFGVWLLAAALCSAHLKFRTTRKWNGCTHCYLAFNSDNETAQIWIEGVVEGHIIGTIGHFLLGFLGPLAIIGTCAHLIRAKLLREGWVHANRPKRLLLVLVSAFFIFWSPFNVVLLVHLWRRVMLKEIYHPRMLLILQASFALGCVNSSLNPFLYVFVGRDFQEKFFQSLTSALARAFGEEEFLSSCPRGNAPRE
How it was run: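 CHO-K1 cells stably expressing ProLink-tagged GPR32 and Enzyme Activator-tagged beta-arrestin were seeded at 2,500 cells/well overnight, exposed to compounds for 90 min at 37 °C, then read by beta-Gal complementation chemiluminescence after 1 h detection reagent.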
COc1cccc(NS(=O)(=O)c2ccc3c(c2)[C@H]2C=CC[C@H]2[C@@H](c2ccccc2Cl)N3)c1 was tested, and the activation was inactive: -11.3%. CCN(CC)CCNC(=O)CSc1nc2nc(C)c(Cc3ccccc3)c(C)n2n1 was tested, and the activation was inactive: -13.4%. With COc1ccccc1NC(=O)CSc1nc2nccnc2c(=O)n1CCc1c[nH]c2ccccc12 the activation was inactive: -0.814%. Cc1cccn2c(Nc3ccccc3)c(-c3cccs3)nc12 was tested, and the activation was inactive: -22.8%. For COc1cccc(CNC(=O)Cc2ccc(NC(=O)N3CCSc4ncccc43)cc2)c1OC, the activation was inactive: 2.59%. In the case of Cc1[nH]c2ccccc2c1C(c1ccccc1)c1ccc(Cl)s1 (stereo not drawn), the activation is reported as inactive: 0.0676%. In the case of CCOc1ccccc1NC(=O)CCn1cnnn1, the activation is reported as inactive: -2.04%. CN=C(NC#N)Nc1ccc(C2=NNC(=O)CC2C)cc1 (stereo not drawn) was tested, and the activation was inactive: 5.6%. For COc1ccccc1CNC(=O)CSc1nc2nc(C)c(Cc3ccccc3Cl)c(C)n2n1, the activation was inactive: -24.2%. With COc1ccc(N2C(=O)CS(=O)(=O)C23C(=O)N(Cc2ccc(F)cc2)c2ccc(C)cc23)cc1 (stereo not drawn) the activation was inactive: -3.94%. CCC(=O)N1CCc2cc(Br)cc(S(=O)(=O)N3CCCC(C(=O)Nc4cccc(C)c4C)C3)c21 (stereo not drawn) was tested, and the activation was inactive: -3.79%. Cc1ccccc1NC(=O)c1c(NC(=O)c2ccco2)sc2c1CCC(C(C)(C)C)C2 (stereo not drawn) was tested, and the activation was inactive: 2.36%. For Cc1ccc(Cl)cc1NC(=O)C1CCCN(S(=O)(=O)c2cccc3cccnc23)C1 (stereo not drawn), the activation was inactive: -7.8%. For CCCCNC(=O)c1nn(-c2ccc(C)cc2)c(=O)n(C)c1=O, the activation was inactive: -8.09%. For CC(CNC(=O)CN1C(=O)COc2ccc(S(=O)(=O)N3CCCCCC3)cc21)c1ccccc1 (stereo not drawn), the activation was inactive: -37.1%. With COc1ccc(CCNC(=O)c2cccc(-n3cnc4cccnc43)c2C)cc1OC the activation was inactive: 0.288%. In the case of CC(=O)[C@@]1(O)CC[C@H]2[C@@H]3C[C@H](C)C4=CC(=O)CC[C@]4(C)[C@H]3CC[C@@]21C, the activation is reported as inactive: 7.47%. For CC(Oc1ccccc1)C(=O)Nc1ccc(OCc2cc(=O)n3ccsc3n2)cc1 (stereo not drawn), the activation was inactive: 15%. For Cc1ccccc1CNC(=O)c1cccc(NC(=O)N2CCSc3ncccc32)c1, the activation was inactive: 5.02%. In the case of CCOC(=O)c1c(S(=O)(=O)N2CCCC(C(=O)Nc3cccc(C#N)c3)C2)c(C)n(C)c1C (stereo not drawn), the activation is reported as inactive: -8.51%. CCOC(=O)c1c(S(=O)(=O)NCC(=O)Nc2ccc(C)c(N(C)C)c2)c(C)n(C)c1C was tested, and the activation was inactive: -4.07%. Cc1cc2c(cc1S(=O)(=O)N(C)CC(=O)Nc1ccc(C#N)cc1)OCC(=O)N2 was tested, and the activation was inactive: 32.9%. For NS(=O)(=O)c1ccc(CCNC(=O)c2ccc3nc(CCc4ccccc4)oc3c2)cc1, the activation was inactive: 13.4%. In the case of CCOc1ccc(CC(=O)Nc2c(C(=O)Nc3ccc(OC)cc3OC)oc3ccccc23)cc1, the activation is reported as inactive: -15.9%. Cc1ccc(S(=O)(=O)c2cn(CC(=O)Nc3ccccc3C)c3cc4c(cc3c2=O)OCO4)cc1 was tested, and the activation was inactive: -16%. For Cn1c(=O)c2c(SCC(=O)NCc3ccco3)nc(-c3cccc(F)c3)nc2n(C)c1=O, the activation was inactive: -8.02%. In the case of COc1ccc(-c2nc3cc(C)ccn3c2NC(=O)c2ccc(F)cc2)cc1, the activation is reported as inactive: -36.2%. In the case of C[C@H](N)[C@H](O)c1cccc(O)c1, the activation is reported as inactive: 7.69%. In the case of Cc1ccc(-n2nc3c(=O)n(CC(=O)NC(C)C)nc(C)c3c2C)cc1, the activation is reported as inactive: -0.0054%. COc1ccc(S(=O)(=O)c2c(Nc3c(C)cccc3C)sc(C(=O)c3ccc4c(c3)OCO4)c2N)cc1 was tested, and the activation was inactive: -24.2%. COc1cc(NC(=O)CC2C(=O)N(c3cccc(C)c3)C(=O)N2Cc2ccco2)cc(OC)c1 (stereo not drawn) was tested, and the activation was inactive: -18.7%. In the case of O=C(Nc1ccc2oc(-c3cccnc3)nc2c1)c1ccc(-c2cccc(Cl)c2)o1, the activation is reported as inactive: -14.2%. COc1cccc(CCNC(=O)c2cnc3sc(N4CCCCCC4)nn3c2=O)c1 was tested, and the activation was inactive: -1.25%. In the case of CCOC(=O)OCC/C(SC(=O)OCC)=C(\C)N(C=O)Cc1cnc(C)nc1N, the activation is reported as inactive: 7.62%. In the case of COc1ccc(CN(C)c2ccc(-c3nc(-c4ccccc4)no3)cc2[N+](=O)[O-])cc1, the activation is reported as inactive: -5.94%. With CCC(CC)C(=O)Nc1ccc2nc(SCc3ccccc3)sc2c1 the activation was inactive: -1.68%. COc1ccc2c(CC(=O)Nc3ccc(C)cc3)coc2c1 was tested, and the activation was inactive: -1.02%. In the case of Cc1cccc(Nc2ncc(NC(=O)c3cccc(F)c3)c(Nc3cccc(C)c3)n2)c1, the activation is reported as inactive: -22%. With CS(=O)(=O)c1ncc(Cl)c(C(=O)Nc2c(C(=O)Nc3ccccc3)oc3ccccc23)n1 the activation was inactive: 42.6%. With O=C(CSc1nnc(-c2ccncc2)n1-c1ccccc1)Nc1ccc(Cl)c(Cl)c1 the activation was inactive: 40.9%. In the case of COc1ccc(NC(=O)CSC2=Nc3ccccc3C3=NC(CC(=O)NCc4ccco4)C(=O)N23)cc1 (stereo not drawn), the activation is reported as inactive: -25.3%. With O=C(Cn1c(-c2cccs2)cc2ccccc21)N1CCN(c2ccccc2F)CC1 the activation was inactive: -8.95%. With Clc1ccc(CCNc2nc3ccccc3c3nc(-c4ccccc4)nn23)cc1 the activation was inactive: -3.1%. For CCN(C(=O)CSc1nnc(-c2cc(OC)c(OC)c(OC)c2)o1)c1ccccc1, the activation was inactive: 33.7%. For CCOc1ccc(NC(=O)Cn2cc(C(=O)c3cccs3)c3ccccc32)cc1, the activation was inactive: -17.5%. CCOc1cccc(CC(=O)NCc2ccc3c(c2)CCN3C(=O)c2ccc(F)cc2)c1OCC was tested, and the activation was inactive: -5.64%. In the case of Cc1ccc(C(=O)N(Cc2ccco2)Cc2ccco2)cc1, the activation is reported as inactive: -8.22%. With CCOc1cc(CNC(=O)c2ccccc2NC(=O)c2nsc3ccccc23)ccc1OC the activation was inactive: -16.6%. In the case of CC1(C)S[C@@H]2[C@H](NC(=O)C(C(=O)O)c3ccccc3)C(=O)N2[C@H]1C(=O)O (stereo partly drawn), the activation is reported as inactive: 24.4%. With Cc1ccc(NC(=O)C2CCN(S(=O)(=O)c3ccc4[nH]c(=O)ccc4c3)CC2)cc1C the activation was inactive: 24.7%. With CCc1ccc(CN(Cc2ccco2)c2cnc(S(C)(=O)=O)nc2C(=O)Nc2c(C)cccc2C)cc1 the activation was inactive: -16.2%. For CCCc1cc(N2CCN(c3ccccc3)CC2)n2cnnc2n1, the activation was inactive: 11%. CCOc1ccc(CCNC(=O)Cn2c(-c3cccs3)cc3cc(F)ccc32)cc1OCC was tested, and the activation was active: 112%. CCc1cccc(CC)c1NC(=O)Cn1c(=O)c(-c2cc(C)ccc2NC(C)=O)nc2ccccc21 was tested, and the activation was inactive: -6.44%. With O=C1COc2cc(S(=O)(=O)CCC(=O)N3CCN(c4ccccc4F)CC3)c(Cl)cc2N1 the activation was inactive: -11.4%. In the case of Cn1c(=NC(=O)c2ccc(S(=O)(=O)N3CCCC3)cc2)sc2cc(F)ccc21, the activation is reported as inactive: -0.158%. In the case of CCc1ccccc1NCc1nnc2n1CCCCC2, the activation is reported as inactive: 32.1%. For CCOc1ccccc1NC(=O)C1CCN(S(=O)(=O)c2cc(Br)cc3c2N(C(C)=O)CC3)CC1, the activation was inactive: -4.16%. COc1cccc(CN2CCCN(CC(=O)Nc3ccc4c(c3)OCCO4)S2(=O)=O)c1 was tested, and the activation was inactive: -3.05%. In the case of Cc1ccc(-c2nnc(SCC(=O)c3ccc(Cl)cc3)n2-c2ccccc2)cc1, the activation is reported as inactive: -15.6%. For Cc1oc(-c2ccccc2F)nc1CSCC(=O)N1CCN(c2ccccc2)CC1, the activation was inactive: 4.27%. In the case of Cc1nc2nc(NC(=O)c3ccc(C(C)(C)C)cc3)[nH]n2c(=O)c1Cl, the activation is reported as inactive: 37.5%. In the case of COc1cccc(N(Cc2nnc3n2CCCCC3)C(=O)Nc2ccccc2)c1, the activation is reported as inactive: 3.86%. For CCCCOc1ccc(C(=O)NCCc2sc(-c3ccc(OC)c(OC)c3)nc2C)cc1, the activation was inactive: 1.89%. With CCOc1ccc(CNC(=O)c2ccc3c(c2)N(CC)CCS3)cc1 the activation was inactive: -38.6%. In the case of CCN(CC)CCOC(=O)C(Cc1cccc2ccccc12)CC1CCCO1 (stereo not drawn), the activation is reported as inactive: -1.46%. For COc1ccc(N2CCN(C(=O)CSc3c4c(nc5ccc(Cl)cc35)CCCC4)CC2)cc1, the activation was inactive: -28.3%. With O=C(Nc1cccc(O)c1)c1cc2nc(-c3ccc(Br)cc3)cc(C(F)(F)F)n2n1 the activation was inactive: -6.66%. In the case of CC1CCc2nc(NC(=O)COc3ccc(C(C)(C)C)cc3)sc2C1 (stereo not drawn), the activation is reported as inactive: 3.53%. With CCOC(=O)c1ncn2c1CN(C)C(=O)c1cc(F)ccc1-2 the activation was inactive: -3.77% and inactive: 5.41%. With O=NN(CCCl)C(=O)NCCCl the activation was inactive: -23.6% and inactive: 6.21%. In the case of O=S(=O)(Nc1cccc(-c2ccc(N3CCCCC3)nn2)c1)c1cccs1, the activation is reported as inactive: 1.61%. COc1ccc(OC)c(C2CC(=O)c3c([nH]c(C(=O)OCC4CCCCC4)c3C)C2)c1 (stereo not drawn) was tested, and the activation was inactive: -9.39%. For Cc1cccc(CCn2c(=O)c3ccccc3n(Cc3cccc(F)c3)c2=O)c1, the activation was inactive: -16.7%. For Cc1csc2nc(COC(=O)COc3ccccc3F)cc(=O)n12, the activation was inactive: 2.73%. CC(=O)c1cccc(NC(=O)CCS(=O)(=O)c2cc(Br)cc3c2N(C(=O)C2CC2)CC3)c1 was tested, and the activation was inactive: -7.35%. In the case of CCCC(=O)N1CC(=O)Nc2ccc(Cl)cc2C1c1ccc(F)cc1 (stereo not drawn), the activation is reported as inactive: -9.28%. CCOc1ccc(S(=O)(=O)Nc2ccc3oc(C)c(C(=O)OCCOC)c3c2)cc1 was tested, and the activation was inactive: -15.5%. For O=C(Cc1ccc(NC(=O)N2CCSc3ncccc32)cc1)NCc1ccccc1Cl, the activation was inactive: 40.9%. For CCS(=O)(=O)c1ncc(N(Cc2ccco2)Cc2sccc2C)c(C(=O)Nc2cc(C)ccc2C)n1, the activation was inactive: -16.5%. For COc1ccc(CCNC(=O)Cn2nnc(-c3ccc(C(F)(F)F)cc3)n2)cc1OC, the activation was inactive: -11.7%. With CCCn1c(=O)c2sccc2n2c(CCCC(=O)N3CCN(c4ccccc4)CC3)nnc12 the activation was inactive: -8.91%. With Cn1c(C(=O)NCc2ccc(F)cc2)cc2c(=O)n(C)c3ccccc3c21 the activation was inactive: 5.96%.
